# Test results taken from the supplement of paper PMC6531468.
# Some of the results follow. Values come from read counts of a selection and are noisy. Scores sum up all selected molecules that hold the word; the word was not tested alone.
# Tested on: IMP3 KH1-4
# Experiment: 6-mer SELEX enrichment z-score vs GST control; IMP3 is the RNA-binding protein IGF2BP3; higher = more enriched by binding
# Settings: construct: KH1-4 (164-579); SELEX round: R4
# Protocol: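 SELEX-seq with GST-tagged IMP3 KH1-4 (Pro164-Lys579) and an N40 RNA pool, round 4. 6-mer z-score of sequence-tag enrichment normalised to the corresponding GST SELEX round; RNA k-mers written as DNA (T for U).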
# IMP3 KH1-4, sequence (chain, as listed by the source): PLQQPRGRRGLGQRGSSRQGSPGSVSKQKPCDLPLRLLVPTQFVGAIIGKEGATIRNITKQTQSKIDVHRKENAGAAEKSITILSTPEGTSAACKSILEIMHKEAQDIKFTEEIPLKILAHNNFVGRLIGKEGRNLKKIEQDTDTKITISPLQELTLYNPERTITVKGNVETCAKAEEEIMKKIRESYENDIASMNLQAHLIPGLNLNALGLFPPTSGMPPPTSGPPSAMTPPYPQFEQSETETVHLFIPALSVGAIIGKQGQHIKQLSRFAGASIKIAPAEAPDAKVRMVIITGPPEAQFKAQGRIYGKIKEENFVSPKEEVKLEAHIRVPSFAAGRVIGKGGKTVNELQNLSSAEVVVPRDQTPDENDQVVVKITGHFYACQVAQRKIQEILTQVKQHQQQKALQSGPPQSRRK
row,Sequence,6-mer SELEX enrichment z-score
1,AATTGC,0.286
2,TGCTCT,-0.029
3,GCGTAT,-1.81
4,CCCCTC,-0.428
5,TGCCCG,-1.49
6,CAGCGG,0.339
7,GGAGGC,0.779
8,GTTGTA,-0.103
9,GCGTTG,-1.35
10,ATTGGA,0.272
11,TTGCAG,0.519
12,ACGCCC,-0.865
13,GACGCC,-0.898
14,TGGAAT,0.444
15,GACCTG,-1.36
16,TACCGA,-1.5
17,TTCACC,0.252
18,GGGGGG,1.34
19,ATCTCC,0.126
20,TTTTCG,-0.034

row,Sequence,6-mer SELEX enrichment z-score
1,GGAATG,0.974
2,GCCCAC,-1.41
3,TTTTTC,1.02
4,AGCAAC,-0.522
5,ACTCGA,-2.17
6,GGTTAT,0.115
7,TCCCCC,0.632
8,TGTTAC,0.119
9,AAAGGC,-0.276
10,GTACTT,-0.531
11,CACTGC,0.672
12,TGTAGC,-0.704
13,GGGAGG,1.2
14,GGATGG,1.14
15,TCTCGG,-0.348
16,GGATCT,-0.084
17,TGCCAG,0.003
18,CATAGT,0.24
19,GTAGTT,-0.739
20,CCGCTG,0.069
